# Measurements reported in the supplement of paper PMC8728848.
# The other results are listed elsewhere or left out.
# B1: Si Bti9 1b-V5-his (Solanum lycopersicum) (protein)
# chain: MQCNRGCDLALASFYVWRGSNLTLISEMFSTSIADIVSYNNRDNIPNQDSVIAGTRINIPFRCDCLNDGEVLGHAFPYRVKSGDTYDLVARNYSDLTTAQWMMKFNSYPENNIPNTVNLSVVVNCSCGNSDVSKDFGLFVTYPVRAEDNLTSVASAANVSEDIIRRYNPAAVSILDIGQGIIYIPGRDRNGNFPPLPTSTDGLSGGAKKGGRADPAFLYKVVINSKLEGKPIPNPLLGLDSTRTGHHHHHH
# What was measured:
# Assay in all cases: glycan array binding signal (z-score within array); higher = stronger binding
# Conditions in all cases: glycan notation: IUPAC condensed, linker removed
# [1] = biological target: Fuc(a1-2)Gal6S(b1-3)GlcNAc6S
# Outline: (§1)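 Glycan array binding is given as a within-array Z-score, which can be read as non-binding when negative. The arrays, 3228 of them, came from the Consortium for Functional Glycomics database and were retained only where the protein sequence was available. Z-scores were averaged across arrays of the same protein sequence at different concentrations or buffers and across linkers.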
# [2] = biological target: Fuc(a1-2)Gal6S(b1-4)Glc
# Outline: as §1
# [3] = biological target: Fuc(a1-2)Gal6S(b1-4)Glc6S
# Outline: as §1
# [4] = biological target: Fuc(a1-2)[Gal(a1-3)]Gal
# Outline: as §1
# [5] = biological target: Fuc(a1-2)[Gal(a1-3)]Gal(b1-3)GalNAc
# Outline: as §1
# [6] = biological target: Fuc(a1-2)[Gal(a1-3)]Gal(b1-3)GalNAc(b1-3)Gal(a1-4)Gal(b1-4)Glc
# Outline: as §1
# [7] = biological target: Fuc(a1-2)[Gal(a1-3)]Gal(b1-3)GlcNAc
# Outline: as §1
# [8] = biological target: Fuc(a1-2)[Gal(a1-3)]Gal(b1-3)GlcNAc(b1-2)Man(a1-3)[Fuc(a1-2)[Gal(a1-3)]Gal(b1-3)GlcNAc(b1-2)Man(a1-6)]Man(b1-4)GlcNAc(b1-4)GlcNAc
# Outline: as §1
# [9] = biological target: Fuc(a1-2)[Gal(a1-3)]Gal(b1-3)GlcNAc(b1-2)Man(a1-3)[Fuc(a1-2)[Gal(a1-3)]Gal(b1-3)GlcNAc(b1-2)Man(a1-6)]Man(b1-4)GlcNAc(b1-4)[Fuc(a1-6)]GlcNAc
# Outline: as §1
# [10] = biological target: Fuc(a1-2)[Gal(a1-3)]Gal(b1-3)GlcNAc(b1-3)GalNAc
# Outline: as §1
# [11] = biological target: Fuc(a1-2)[Gal(a1-3)]Gal(b1-3)GlcNAc(b1-6)GalNAc
# Outline: as §1
# [12] = biological target: Fuc(a1-2)[Gal(a1-3)]Gal(b1-4)Glc
# Outline: as §1
# [13] = biological target: Fuc(a1-2)[Gal(a1-3)]Gal(b1-4)GlcNAc
# Outline: as §1
# [14] = biological target: Fuc(a1-2)[Gal(a1-3)]Gal(b1-4)GlcNAc(b1-2)Man
# Outline: as §1
# [15] = biological target: Fuc(a1-2)[Gal(a1-3)]Gal(b1-4)GlcNAc(b1-2)Man(a1-3)[Fuc(a1-2)[Gal(a1-3)]Gal(b1-4)GlcNAc(b1-2)Man(a1-6)]Man(b1-4)GlcNAc(b1-4)GlcNAc
# Outline: as §1
# [16] = biological target: Fuc(a1-2)[Gal(a1-3)]Gal(b1-4)GlcNAc(b1-2)Man(a1-3)[Fuc(a1-2)[Gal(a1-3)]Gal(b1-4)GlcNAc(b1-2)Man(a1-6)]Man(b1-4)GlcNAc(b1-4)[Fuc(a1-6)]GlcNAc
# Outline: as §1
# [17] = biological target: Fuc(a1-2)[Gal(a1-3)]Gal(b1-4)GlcNAc(b1-3)GalNAc
# Outline: as §1
# [18] = biological target: Fuc(a1-2)[Gal(a1-3)]Gal(b1-4)GlcNAc(b1-3)[Fuc(a1-2)[Gal(a1-3)]Gal(b1-4)GlcNAc(b1-6)]GalNAc
# Outline: as §1
# [19] = biological target: Fuc(a1-2)[Gal(a1-3)]Gal(b1-4)GlcNAc(b1-6)GalNAc
# Outline: as §1
# [20] = biological target: Fuc(a1-2)[Gal(a1-3)]Gal(b1-4)[Fuc(a1-3)]Glc
# Outline: as §1
# [21] = biological target: Fuc(a1-2)[Gal(a1-3)]Gal(b1-4)[Fuc(a1-3)]GlcNAc
# Outline: as §1
# [22] = biological target: Fuc(a1-2)[Gal(a1-3)]Gal(b1-4)[Fuc(a1-3)]GlcNAc(b1-3)GalNAc
# Outline: as §1
# [23] = biological target: Fuc(a1-2)[Gal(a1-4)]Gal(b1-4)GlcNAc
# Outline: as §1
# [24] = biological target: Fuc(a1-2)[GalNAc(a1-3)]Gal
# Outline: as §1
# [25] = biological target: Fuc(a1-2)[GalNAc(a1-3)]Gal(b1-3)GalNAc(a1-3)[Fuc(a1-2)]Gal(b1-4)GlcNAc
# Outline: as §1
# [26] = biological target: Fuc(a1-2)[GalNAc(a1-3)]Gal(b1-3)GalNAc(b1-3)Gal(a1-4)Gal(b1-4)Glc
# Outline: as §1
# [27] = biological target: Fuc(a1-2)[GalNAc(a1-3)]Gal(b1-3)GlcNAc
# Outline: as §1
# [28] = biological target: Fuc(a1-2)[GalNAc(a1-3)]Gal(b1-3)GlcNAc(b1-2)Man(a1-3)[Fuc(a1-2)[GalNAc(a1-3)]Gal(b1-3)GlcNAc(b1-2)Man(a1-6)]Man(b1-4)GlcNAc(b1-4)GlcNAc
# Outline: as §1
# [29] = biological target: Fuc(a1-2)[GalNAc(a1-3)]Gal(b1-3)GlcNAc(b1-2)Man(a1-3)[Fuc(a1-2)[GalNAc(a1-3)]Gal(b1-3)GlcNAc(b1-2)Man(a1-6)]Man(b1-4)GlcNAc(b1-4)[Fuc(a1-6)]GlcNAc
# Outline: as §1
# [30] = biological target: Fuc(a1-2)[GalNAc(a1-3)]Gal(b1-3)GlcNAc(b1-3)GalNAc
# Outline: as §1
# [31] = biological target: Fuc(a1-2)[GalNAc(a1-3)]Gal(b1-3)GlcNAc(b1-6)GalNAc
# Outline: as §1
# [32] = biological target: Fuc(a1-2)[GalNAc(a1-3)]Gal(b1-4)Glc
# Outline: as §1
# [33] = biological target: Fuc(a1-2)[GalNAc(a1-3)]Gal(b1-4)GlcNAc
# Outline: as §1
# [34] = biological target: Fuc(a1-2)[GalNAc(a1-3)]Gal(b1-4)GlcNAc(b1-2)Man
# Outline: as §1
# [35] = biological target: Fuc(a1-2)[GalNAc(a1-3)]Gal(b1-4)GlcNAc(b1-2)Man(a1-3)[Fuc(a1-2)[GalNAc(a1-3)]Gal(b1-4)GlcNAc(b1-2)Man(a1-6)]Man(b1-4)GlcNAc(b1-4)GlcNAc
# Outline: as §1
# [36] = biological target: Fuc(a1-2)[GalNAc(a1-3)]Gal(b1-4)GlcNAc(b1-2)Man(a1-3)[Fuc(a1-2)[GalNAc(a1-3)]Gal(b1-4)GlcNAc(b1-2)Man(a1-6)]Man(b1-4)GlcNAc(b1-4)[Fuc(a1-6)]GlcNAc
# Outline: as §1
# [37] = biological target: Fuc(a1-2)[GalNAc(a1-3)]Gal(b1-4)GlcNAc(b1-3)Gal(b1-4)GlcNAc
# Outline: as §1
# [38] = biological target: Fuc(a1-2)[GalNAc(a1-3)]Gal(b1-4)GlcNAc(b1-3)Gal(b1-4)GlcNAc(b1-3)Gal(b1-4)GlcNAc
# Outline: as §1
# [39] = biological target: Fuc(a1-2)[GalNAc(a1-3)]Gal(b1-4)GlcNAc(b1-3)GalNAc
# Outline: as §1
# [40] = biological target: Fuc(a1-2)[GalNAc(a1-3)]Gal(b1-4)GlcNAc(b1-3)[Fuc(a1-2)[GalNAc(a1-3)]Gal(b1-4)GlcNAc(b1-6)]GalNAc
# Outline: as §1
# [41] = biological target: Fuc(a1-2)[GalNAc(a1-3)]Gal(b1-4)GlcNAc(b1-6)GalNAc
# Outline: as §1
# [42] = biological target: Fuc(a1-2)[GalNAc(a1-3)]Gal(b1-4)[Fuc(a1-3)]GlcNAc
# Outline: as §1
# [43] = biological target: Fuc(a1-2)[GalNAc(a1-3)]Gal(b1-4)[Fuc(a1-3)]GlcNAc(b1-3)GalNAc
# Outline: as §1
# [44] = biological target: Fuc(a1-2)[GalNAc(a1-4)]Gal(b1-4)GlcNAc
# Outline: as §1
# [45] = biological target: Fuc(a1-2)[GalNAc(b1-3)]Gal
# Outline: as §1
binder,measurement,setting,value
B1,glycan array binding signal (z-score),[1],-0.212
same,glycan array binding signal (z-score),[2],-0.136
same,glycan array binding signal (z-score),[3],-0.323
same,glycan array binding signal (z-score),[4],-0.187
same,glycan array binding signal (z-score),[5],-0.193
same,glycan array binding signal (z-score),[6],-0.264
same,glycan array binding signal (z-score),[7],1.15
same,glycan array binding signal (z-score),[8],0.087
same,glycan array binding signal (z-score),[9],-0.157
same,glycan array binding signal (z-score),[10],-0.161
same,glycan array binding signal (z-score),[11],-0.283
same,glycan array binding signal (z-score),[12],0.314
same,glycan array binding signal (z-score),[13],-0.371
same,glycan array binding signal (z-score),[14],0.112
same,glycan array binding signal (z-score),[15],-0.008
same,glycan array binding signal (z-score),[16],-0.131
same,glycan array binding signal (z-score),[17],-0.156
same,glycan array binding signal (z-score),[18],0.089
same,glycan array binding signal (z-score),[19],-0.291
same,glycan array binding signal (z-score),[20],-0.298
same,glycan array binding signal (z-score),[21],-0.394
same,glycan array binding signal (z-score),[22],-0.233
same,glycan array binding signal (z-score),[23],-0.37
same,glycan array binding signal (z-score),[24],-0.167
same,glycan array binding signal (z-score),[25],-0.268
same,glycan array binding signal (z-score),[26],-0.335
same,glycan array binding signal (z-score),[27],-0.322
same,glycan array binding signal (z-score),[28],0.024
same,glycan array binding signal (z-score),[29],-0.076
same,glycan array binding signal (z-score),[30],0.117
same,glycan array binding signal (z-score),[31],-0.213
same,glycan array binding signal (z-score),[32],-0.239
same,glycan array binding signal (z-score),[33],-0.218
same,glycan array binding signal (z-score),[34],0.027
same,glycan array binding signal (z-score),[35],-0.252
same,glycan array binding signal (z-score),[36],0.032
same,glycan array binding signal (z-score),[37],-0.255
same,glycan array binding signal (z-score),[38],0.217
same,glycan array binding signal (z-score),[39],-0.145
same,glycan array binding signal (z-score),[40],-0.271
same,glycan array binding signal (z-score),[41],-0.333
same,glycan array binding signal (z-score),[42],-0.245
same,glycan array binding signal (z-score),[43],0.126
same,glycan array binding signal (z-score),[44],-0.185
same,glycan array binding signal (z-score),[45],-0.345
